In PubChem BioAssay AID757 (NMMLSC, 2007):
In all, about 190,000 compounds went through this assay and about 520 (0.27%) were called active. The shares of active, inactive and inconclusive entries below differ from those in the screen.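 The calls were made as follows: active = GTP binding activity at least 20 points away from the 100% control level, either lower or higher; inconclusive = compound flagged as likely green fluorescent, judged across all proteins; inactive = the rest.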

Each compound was assayed against Ras-related C3 botulinum toxin substrate 1 (Homo sapiens) (UniProt P63000) (assay: wildtype Rac1 GTP binding modulators, primary screen, biochemical, GST-Rac1 beads, flow cytometry, multiplex (AID 757)). Conditions: fluorescent GTP binding, at 10 µM, actives lie on both sides, 0 = cold GTP competed, 100 = untreated.

Compound	GTP binding activity (% of control)
Cc1ccc(S(=O)(=O)Cn2nnnc2CN2CCN(Cc3ccc4c(c3)OCO4)CC2)cc1	inconclusive: 105%
CCc1cc2cc(OC)ccc2nc1SCC(=O)Nc1cc(OC)c(OC)cc1C(=O)O	inconclusive: 94%
COc1ccc(C(=O)NC(=S)Nc2ccc(Cc3ccncc3)cc2)cc1	inactive: 95%
CCc1ccc(NC(=O)c2ccc3ncsc3c2)cc1	inconclusive: 107%
Clc1ccc2c(c1)CCc1cccnc1C2=C1CCNCC1	inconclusive: 111%
O=C(COc1ccccc1/C=C\c1[nH]c(=O)[nH]c(=O)c1[N+](=O)[O-])Nc1ccccc1	active: 79%
COc1ccc(Nc2nc3ccc(C)cn3c(=O)c2/C=N/O)cc1	inconclusive: 82%
CCOCCCNc1nc(=S)[nH]c2cc(OC)c(OC)cc12	inconclusive: 79%
COc1ccc(S(=O)(=O)Cc2ccc(C(=O)N3CCN(c4cccc(C)c4C)CC3)o2)cc1	inconclusive: 79%
OC(CNCC1CCCO1)Cn1c2ccc(Cl)cc2c2cc(Cl)ccc21 (configuration not stated)	inconclusive: 106%
CC(=O)Nc1ccc(NC(=O)c2c(C)nn(-c3ccccc3)c2Cl)cc1C	inactive: 96%
CCNS(=O)(=O)c1ccc2c(c1)NCC2	inactive: 101%
COc1ccc2cc(C)c3nnc(SCC(=O)Nc4nc(-c5ccc(F)cc5)cs4)n3c2c1	inconclusive: 96%
Cn1c(/C=C(\C#N)C(N)=S)ccc1-c1ccc(Br)cc1	inactive: 91%
O=C(Cn1cc([N+](=O)[O-])cn1)Nc1cccnc1	inconclusive: 99%
N#C/C(=C/c1ccc(N2CCCCCC2)o1)c1cccc(F)c1	inconclusive: 109%
O=C(COc1nc2ccccc2nc1N1CCOCC1)NC1CCCCC1	inconclusive: 108%
CCN1CCN(c2oc(COc3ccc(-c4ccccc4)cc3)nc2C#N)CC1	inconclusive: 94%
O=C(CC(=O)c1ccccc1)Nc1cccnc1Cl	inactive: 101%
O=C(O)c1cccnc1SCc1ccccc1Cl	active: 131% [activator]
CCN(CC)S(=O)(=O)c1ccc2c(c1)c(=O)c(C(=O)NCCN(C)CCc1ccccc1)cn2C	inconclusive: 105%
Cc1noc(N)c1C(=O)Nc1ccc(F)cc1	inconclusive: 110%
CCOc1cc2nc(-c3ccc(OC)c(OC)c3)nc(NCCCN3CCOCC3)c2cc1OC	inconclusive: 84%

Compound	GTP binding activity (% of control)
CCOC(=O)C1C2C=CC3(CN(Cc4cccs4)C(=O)C13)O2 (configuration not stated)	inconclusive: 98%
O=c1c2ccccc2nnn1Cc1ccc(Br)cc1	inconclusive: 91%
COc1ccc(CNC(=O)COC(=O)/C=C/c2ccco2)cc1	inconclusive: 87%
O=C(Nc1ccc(CCC(=O)N2CCCC2)cc1)c1ncn[nH]1	inconclusive: 118%
Cc1occc1C(=O)N/N=C/c1cccs1	inconclusive: 106%
CCN(CC)C(=O)c1sc(NC(=O)C(C)C)c(C#N)c1C	inactive: 97%
O=C1NN(c2ccccc2)C(=O)/C1=C/c1ccc(-c2ccc(Cl)c(C(=O)O)c2)o1	inactive: 88%
Cc1cc(OC(=O)c2ccc3ccccc3c2)c([N+](=O)[O-])c(=O)[nH]1	inconclusive: 89%
COc1ccc(-c2cc(-c3ccc(O)cc3)nc(N)c2C#N)cc1OC	active: 69%
Cc1cc(C)nc(N(C#N)Cc2ccc([N+](=O)[O-])cc2)n1	inconclusive: 94%
O=C1CS/C(=C\S(=O)(=O)c2ccc(Cl)cc2)N1	inconclusive: 104%
Cc1ccc(NC(=O)CCCc2nc3ccccc3s2)c(O)c1	inconclusive: 91%
COc1cc2nc(=S)n(CCCN3CCOCC3)c(N)c2cc1OC	inconclusive: 82%
COc1ccc(CC(=O)NNC(=O)c2ccc(NC(C)=O)cc2)cc1	inactive: 95%
O=[N+]([O-])c1ccccc1OCc1nc(-c2cccs2)no1	inconclusive: 93%
COc1cccc2c(SCC(=O)N/N=C/c3ccc(O)cc3O)cc(C)nc12	active: 66%
Cc1ccnc(SCC(=O)n2c3c(c4ccccc42)CC(C)CC3)n1 (configuration not stated)	inconclusive: 101%
CCC(C)NC(=O)COC(=O)c1oc2ccccc2c1CSc1ccc(Cl)cc1 (configuration not stated)	inactive: 104%
CC(C)Oc1ccc(/C=N/NC(=O)c2ccc(N(Cc3ccccc3)S(C)(=O)=O)cc2)cc1	active: 74%
Cc1nc(C(F)(F)F)c(C(=O)N/N=C(\N)c2ccccn2)s1	inactive: 99%
O=C(NCCN1CCN(c2cccc(Cl)c2)CC1)c1ccc(CSc2nc3ccncc3[nH]2)cc1	inactive: 105%
C/C(=N\OC(=O)c1ccccc1)c1c(C)nc2cc(C)ccn12	inactive: 85%
C=CCN(C(=O)c1cccc(C(F)(F)F)c1)C1(C(=O)Nc2ccccc2)CCN(C(C)C)CC1	inconclusive: 99%

Compound	GTP binding activity (% of control)
CCOC(=O)N1CCc2c(sc3c2c(=O)n(Cc2ccccc2)c(=O)n3Cc2cccc(C)c2)C1	inactive: 98%
Cc1cccc(NC(=O)CN2C(=O)N/C(=C/c3ccc(-c4cccc(C(=O)O)c4C)o3)C2=O)c1	inactive: 97%
CC(C)n1c(O)c(N=NC(=O)c2ccccc2NS(=O)(=O)c2cccs2)c2ccccc21	inconclusive: 86%
COCCNC(=O)C1CC(=O)N(c2ccc(OC)cc2)C1c1ccc(OC)cc1 (configuration not stated)	inactive: 103%
O=C(COC(=O)c1cncc(Br)c1)NCc1ccco1	inconclusive: 102%
COc1cccc(N/C(SCc2ccccc2F)=C(/C#N)C(=O)NCc2cccs2)c1	inactive: 110%
O=C(Oc1cccnc1)c1cc2ccccc2oc1=O	inconclusive: 88%
CC(=O)c1cn(CC(=O)Nc2cccc(C)c2C)c2ccccc12	inconclusive: 94%
O=C(Nc1ccc2ncccc2c1)c1cc(Cl)ccc1Cl	inactive: 93%
CCCn1c(N)c(Sc2ccc([N+](=O)[O-])cc2)c(=O)n(CCC)c1=O	inconclusive: 94%
COc1ccc(Cl)cc1NC(=S)NCCN1CCOCC1	inconclusive: 98%
C=CCNC(=O)c1ccccc1NC(=O)c1ccc(Cl)c(S(=O)(=O)Nc2ccccc2)c1	inactive: 100%
CCCCC(=O)NC1(C(F)(F)F)C(=O)N(CC(C)C)C2=C1C(=O)CC(C)(C)C2 (configuration not stated)	inactive: 105%
O=C(Nc1cccc(S(=O)(=O)N2CCCC2)c1)c1ccc2c(c1)OCO2	inactive: 90%
CCOC(=O)C1CCN(C(=O)Cc2cccs2)CC1	inconclusive: 96%
Nc1ccc2c(c1)Oc1ccccc1C=C2	inconclusive: 91%
O=C(CSc1ncnc2c1oc1ccccc12)Nc1ccccc1F	inconclusive: 99%
Cc1ccccc1NC(=O)C1CCCN(S(=O)(=O)c2cccc3cccnc23)C1 (configuration not stated)	inactive: 103%
COc1ccc(/C=C2\SC(=S)NC2=O)cc1OS(=O)(=O)c1ccc(NC(C)=O)cc1	active: 135% [activator]
CC1CC(C)CN(C(=O)Cn2c(=O)n(CCCCC(=O)NCc3ccco3)c(=O)c3ccccc32)C1 (configuration not stated)	inconclusive: 106%
C/C=C/C=N/NC(=O)CN(c1ccc(Br)cc1)S(=O)(=O)c1ccccc1	inactive: 101%
CC(=O)c1c(C)[nH]c(C(=O)NCc2ccco2)c1C	inconclusive: 93%
O=C(NC1(C(F)(F)F)NC(=O)N(Cc2ccco2)C1=O)c1cccnc1 (configuration not stated)	inconclusive: 102%

Compound	GTP binding activity (% of control)
CNC(=S)Nc1ccc([N+](=O)[O-])cc1	inactive: 101%
CCCn1nnc(NC(=O)/C=C/c2cc(Br)ccc2OC)n1	inconclusive: 98%
CC(C)CN(C)Cc1c(C(=O)N2CCc3ccccc3C2)nc2ccc(Cl)cn12	inactive: 100%
O=c1c(Cc2ccc(F)cc2)c(O)ccn1Cc1ccc(F)cc1	inconclusive: 96%
O=C(NCc1cccs1)c1cccn2c(=O)c3sccc3nc12	active: 55%
CCCCN(CCCC)c1nc2ccccc2nc1C(C#N)C(=O)NCCCOC (configuration not stated)	inconclusive: 117%
S=C(NCCCn1ccnc1)Nc1ccc(Cl)cc1Cl	inconclusive: 89%
CC1=CCC(Cc2nc3ccccc3o2)C1(C)C (configuration not stated)	inconclusive: 93%
CC(=O)c1cccc(NC(=S)NNC(=O)c2ccco2)c1	inconclusive: 89%
COc1ccc(S(=O)(=O)N2CCC(C(=O)N3CCc4ccccc4C3)CC2)cc1	inconclusive: 114%
CCCn1c2c(c(O)c(C(=O)Nc3ccccc3)c1=O)CCCC2	inconclusive: 105%
Cc1ccc(C2=CSC3=NS(=O)(=O)CCN23)cc1	inconclusive: 93%
N=C1S/C(=C\c2ccco2)C(=O)N1c1ccc2c(c1)OCO2	inconclusive: 93%
COCC(C)N1CC(O)=C(c2nc(-c3ccc(Cl)cc3)cs2)C1=N (configuration not stated)	inconclusive: 90%
CCc1nc2ccc(C(=O)O)cc2nc1CC	inactive: 97%
Cc1cccc(S(=O)(=O)c2c(N)n(/N=C/c3cccnc3)c3nc4ccccc4nc23)c1	inconclusive: 82%
CCOC(=O)c1c(C)[nH]c(C(=O)/C(C#N)=C/c2ccc(OC(F)F)c(OC)c2)c1C	inconclusive: 109%
Cc1ccnc(NC(=O)C2CCN(S(=O)(=O)c3cccc4nonc34)CC2)c1	inactive: 99%
Cc1occc1-c1nnc(SCC(=O)Nc2nc(-c3ccccc3)cs2)o1	inconclusive: 105%
N#C/C(=N\Nc1ccc(S(=O)(=O)N2CCc3ccccc32)cc1)C(N)=S	inconclusive: 91%
Cc1c(Cl)cccc1N=Cc1ccc([N+](=O)[O-])s1	inconclusive: 110%
CCOC(=O)c1sc(NC(=O)CSc2nnc(Cc3ccccc3)o2)c(C#N)c1C	inactive: 81%
Cc1cccn2c(=O)c(C=O)c(N3CCN(c4ccc(F)cc4)CC3)nc12	inactive: 96%
